# The other results are listed elsewhere or left out. Shown are side measurements of this screen, not its main read-out; they come without a call.
# Biological target: GTPase KRas (Homo sapiens) (UniProt P01116)
# Experiment: Fragment capture on engineered cysteines, share of protein labelled (AID 2202238)
# Parameters: protein at 5 µM with 500 µM competing thiol for 1.5 h
# Settings: KRAS G12D cysteine mutants, disulfide tethering, MALDI-TOF labeling, stronger effect = higher value, fragment at 500 µM
# [1] = measured here: G60C mutant labeling
# [2] = measured here: G75C mutant labeling
# [3] = measured here: H94C mutant labeling
# [4] = measured here: I36C mutant labeling
# [5] = measured here: L120C mutant labeling
# [6] = measured here: M67C mutant labeling
# [7] = measured here: M72C mutant labeling
# [8] = measured here: N26C mutant labeling
# [9] = measured here: N86C mutant labeling
# [10] = measured here: P121C mutant labeling
# [11] = measured here: S122C mutant labeling
# [12] = measured here: S136C mutant labeling
# UniProt P01116, sequence (P01116 whole entry, looked up, the tested form may be a part): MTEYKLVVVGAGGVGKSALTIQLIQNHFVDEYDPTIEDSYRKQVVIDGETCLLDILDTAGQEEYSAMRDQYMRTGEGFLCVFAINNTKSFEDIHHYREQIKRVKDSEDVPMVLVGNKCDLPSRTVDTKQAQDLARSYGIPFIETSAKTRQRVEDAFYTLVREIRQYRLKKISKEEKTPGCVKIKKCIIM
Structure (SMILES),percent labeling [1] [%],percent labeling [2] [%],percent labeling [3] [%],percent labeling [4] [%],percent labeling [5] [%],percent labeling [6] [%],percent labeling [7] [%],percent labeling [8] [%],percent labeling [9] [%],percent labeling [10] [%],percent labeling [11] [%],percent labeling [12] [%]
Cc1c(C(=O)NCCS)[nH]c2cc(Cl)ccc12,47.8,14.4,10.7,6.9,14.5,11.1,41.6,27.9,11.2,10.1,8,12
CCNC(=O)CN1CCN(C(=O)CCS)CC1,,8.1,29.5,33.4,29.1,37.2,15.5,,25.6,35.1,35.7,55.6
CNC(=O)c1cccc(OCC(=O)NCCS)c1,28,18.8,30.5,23.7,48,27.6,25.7,42.5,23.4,28.9,30.1,40.3
O=C(CCS)NCCNC(=O)c1cc2ccccc2[nH]1,,11.9,29.2,33.2,27.1,41.2,27.9,,24.7,28,23.3,36.8
O=C(NCCS)C1(c2cccnc2)CC(F)(F)C1,42.3,16,30.5,36.5,31.8,30.5,18.6,37.6,33.9,28.7,27.8,43.7
O=C(CCCN1C(=O)c2ccccc2C1=O)NCCS,40.2,18.3,36.1,30,43.6,52.4,29.3,40.9,31.8,37.3,34,44.5
CN(C)C(C(=O)NCCS)c1cscn1 (stereo unspecified),26.7,8.8,25.2,24.4,29.3,25.8,8.8,25,22.9,26.9,22.6,39.5
O=C(CCS)Nc1cccc(C(=O)Nc2ccc(Br)cn2)c1,,3.9,9.2,11.9,5.8,6.5,14.1,,4,6,3.9,18.9
CN1CCC(C(=O)NCCS)C(c2ccnn2C)C1 (stereo unspecified),31.7,11.4,36.9,42,33.9,47.1,19.3,35,25.5,37.6,31.3,54.5
Cc1ccc(NC(=O)CCS)cc1-c1nnnn1C1CC1,,11.6,27.6,29.2,20.8,31.9,25.6,,13.7,25.8,21.5,45.7
O=C(CCS)N1CCc2[nH]cc(I)c(=O)c2C1,,20,38.9,49.4,50.7,42.3,27.5,,45.8,35,38,73.8
NC(=O)Nc1cccc(NC(=O)CCS)c1,,17.4,41.8,34.1,34.6,33.1,39.9,,41.7,37.1,31.4,49.5
CCn1ncc2cc(C(=O)NCCS)c(C)nc21,33.5,15.7,30.1,23.9,26.4,33.1,34.7,47.6,25,32.5,27.5,49
O=C(NCCS)c1nc(-c2ccccc2)ns1,18.9,12.2,8.5,6,15.7,6.1,18.1,22.5,6.4,9.3,7.7,11.7
Cc1cccnc1Oc1ccc(C(=O)NCCS)cc1,22.6,9.9,14.5,9.8,18.7,20.7,33,34,11,14.6,15.6,24.7
Cc1ccn(-c2cccc(C(=O)NCCS)c2)n1,32.4,15.9,24.1,15.7,26,20.2,51.4,44.1,15.9,17.5,17.8,38.5
O=C(CCc1ccc(F)c2c1CCCC2)NCCS,28.3,13.2,16.4,15.2,16.9,15,38.9,25.8,13.7,15.4,11.9,21.9
Cc1ccc(C(=O)NCCS)cc1N1CCOCC1,35.9,16.8,32.4,19.2,36.3,25.7,56,43.3,21.8,23.4,26.5,47.4
O=C(CCS)Nc1ccc(-n2cnnc2)nc1,,16.6,24.2,40.7,19.3,27.5,28.6,,20.7,23.3,19,37.3
CCCc1c(C(=O)NCCS)cnn1-c1ccccc1,41.2,22.2,29.5,20.9,31.2,23.4,62.1,38.1,19.3,23,22.2,51.4
O=C(NCCS)c1nc2ccc(Br)cn2n1,46.7,33,37.5,35.1,52.1,39.6,65.7,49.2,30.9,55.9,32.3,50
O=C(NCCS)c1ccc(-c2n[nH]c(C3CC3)n2)cc1,24.1,13.2,12.1,15.8,19.3,19.3,33.7,41.2,27.6,15.3,16.7,32.3
O=C(CCS)NCCn1cnc2sccc2c1=O,,9.5,31.3,38,36.7,35.9,19.1,,19.7,31.7,31.2,54.1
C[C@@H]1CN(c2ccccn2)C[C@H]1C(=O)NCCS,52.2,21.3,34.3,30.3,35.7,42.9,30,46.7,33.2,33.8,31.2,54.6
O=C(CCS)NCc1c2c(n[nH]c1=O)CCCC2,,11.1,29.2,30.3,40,35.7,20.6,,11.5,30.9,35.2,54.1
O=C(Cn1cnc2scc(-c3cccs3)c2c1=O)NCCS,19.8,7.2,10.1,19.1,15.4,9.4,19.5,16.5,7.3,6.9,3.5,14.9
CC(C)(C)OC(=O)N1CCC(C2CCN(C(=O)CCS)CC2)CC1,,22.5,27.3,29.8,20.6,31.5,33.6,,21.9,27.3,20.6,52.2
O=C(CCS)NCCN1CCN(c2ncccn2)CC1,,12.2,32.2,45,40.2,42.7,16.8,,24.1,31.7,35,52.7
O=C(NCCS)c1ccc2c(c1)nnn2CCc1ccccc1,7.2,4.5,6.8,11.8,9.9,10.3,29.6,21.7,4.9,7.2,4.5,11.7
O=C(CCS)NCc1cccc(N2CCCC2=O)c1,,10.9,36.3,39,30.4,37.3,22.3,,18.5,30.9,34.2,50.6
